According to PubChem BioAssay (Tox21):
The inconclusive results got no clear call from the source; some entries with a clear call stand among them for comparison. For some assays here: Potencies beside an inconclusive call are fits to weak or partial responses and may not hold up. The source made the active and inactive calls. Unless noted, calls come from the whole dose curve; as a rule, active = well fitted curve in the direction sought with a large enough effect in the repeat runs; inconclusive = weak or mixed curves; inactive = no such curve, though single readings can be large; an effect the other way counts as inactive or inconclusive.

Key:
[1] = qHTS assay to identify aromatase inhibitors - cell viability counter screen (AID 743084); conditions: MCF-7 aro ERE viability, CellTiter-Fluor, 24 h; activity change, negative = cytotoxicity: at 70.3 µM (top of the series);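 note: cells stimulated with testosterone during compound exposure; nearly all actives have a fitted effect of over 55% in size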; note: potency is the fitted concentration of half-maximal effect; for activity change, negative = cytotoxicity: % is set by controls: 0 for no effect and ±100 for the full control effect
Aromatase (Homo sapiens) = Aromatase (Homo sapiens) (UniProt P11511); test: qHTS assay to identify aromatase inhibitors (AID 743083); conditions: MCF-7 aro ERE, testosterone-driven ERE luciferase, 24 h; activity, negative = inhibition: at 70.3 µM (top of the series); note: nearly all actives have a fitted effect of over 55% in size; note: potency is the fitted concentration of half-maximal effect; for activity, negative = inhibition: % is set by controls: 0 for no effect and ±100 for the full control effect
Chain of UniProt P11511 (P11511 whole entry, looked up): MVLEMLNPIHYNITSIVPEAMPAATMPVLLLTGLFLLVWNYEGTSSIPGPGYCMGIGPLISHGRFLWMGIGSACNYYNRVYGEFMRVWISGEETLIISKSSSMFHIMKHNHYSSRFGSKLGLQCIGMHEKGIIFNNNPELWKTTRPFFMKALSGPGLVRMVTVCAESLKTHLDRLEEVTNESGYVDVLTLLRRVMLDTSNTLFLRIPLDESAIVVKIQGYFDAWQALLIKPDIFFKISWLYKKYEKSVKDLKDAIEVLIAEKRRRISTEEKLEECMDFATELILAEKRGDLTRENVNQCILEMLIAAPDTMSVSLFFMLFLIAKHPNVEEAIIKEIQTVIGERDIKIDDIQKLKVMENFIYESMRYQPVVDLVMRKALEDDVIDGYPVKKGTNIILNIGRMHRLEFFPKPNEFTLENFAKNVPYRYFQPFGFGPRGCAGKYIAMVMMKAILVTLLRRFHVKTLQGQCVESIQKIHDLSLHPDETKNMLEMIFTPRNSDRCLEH

[2] = target: Peroxisome proliferator-activated receptor gamma (Homo sapiens) (UniProt P37231); test: qHTS assay to identify small molecule agonists of the peroxisome proliferator-activated receptor gamma (PPARg) signaling pathway (AID 743094; active = well fitted activation curve with a large enough effect in the signal ratio in the repeat runs, not every such curve was filed as active; inconclusive = weak or mixed curves, or effect the other way; inactive = no such curve, though single readings can be large or run the other way; the % refers to the signal ratio; note: % is set by controls: 0 for no effect and ±100 for the full control effect); conditions: HEK293H PPARg-UAS-bla, beta-lactamase FRET ratio, 17 h; activation: at 57 µM (top of the series) unless noted
Chain of UniProt P37231 (P37231 whole entry, looked up): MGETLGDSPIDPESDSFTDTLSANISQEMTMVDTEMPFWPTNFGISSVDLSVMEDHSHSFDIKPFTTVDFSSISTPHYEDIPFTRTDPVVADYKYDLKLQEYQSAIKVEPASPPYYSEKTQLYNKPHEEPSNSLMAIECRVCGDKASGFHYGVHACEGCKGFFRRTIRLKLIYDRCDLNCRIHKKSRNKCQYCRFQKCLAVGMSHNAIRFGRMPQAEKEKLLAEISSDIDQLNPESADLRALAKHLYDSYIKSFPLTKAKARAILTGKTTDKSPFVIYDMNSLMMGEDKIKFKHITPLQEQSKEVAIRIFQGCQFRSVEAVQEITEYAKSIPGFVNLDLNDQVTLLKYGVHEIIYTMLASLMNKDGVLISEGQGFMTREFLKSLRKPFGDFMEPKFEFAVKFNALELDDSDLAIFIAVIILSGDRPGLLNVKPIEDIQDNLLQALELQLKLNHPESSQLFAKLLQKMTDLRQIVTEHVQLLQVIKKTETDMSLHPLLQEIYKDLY
How it was run: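 Agonist activity was taken from a beta-lactamase reporter (FRET substrate, 1 h at room temperature) in HEK293H cells carrying a PPARg UAS-bla construct. Compounds in DMSO were incubated 17 h at 37C after a 5 h cell pre-incubation.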

[3] = target: Peroxisome proliferator-activated receptor gamma (Homo sapiens) (UniProt P37231); test: qHTS assay to identify small molecule antagonists of the peroxisome proliferator-activated receptor gamma (PPARg) signaling pathway (AID 743191; calls by dose curve; note: nearly all actives have a fitted effect of over 30% in size; note: potency is the fitted concentration of half-maximal effect; for ratio activity, negative = inhibition: % is set by controls: 0 for no effect and ±100 for the full control effect); conditions: HEK293H PPARg-UAS-bla, beta-lactamase ratio, antagonist, 17 h; ratio activity, negative = inhibition: at 62.6 µM (top of the series) unless noted
How it was run: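 GeneBLAzer PPARg UAS-bla HEK293H cells, 5 h post-plating, exposed to compounds 17 h at 37C. LiveBLAzer B/G FRET substrate added for 1 h at room temperature; beta-lactamase reporter read by fluorescence intensity.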

[4] = qHTS assay to identify small molecule antagonists of the peroxisome proliferator-activated receptor gamma (PPARg) signaling pathway - cell viability counter screen (AID 743194); conditions: PPARg-bla HEK293H viability, CellTiter-Glo luminescence, 17 h, co-treated with 50 nM rosiglitazone; activity change, negative = cytotoxicity: at 62.6 µM (top of the series) unless noted; note: nearly all actives have a fitted effect of over 55% in size; note: potency is the fitted concentration of half-maximal effect
How it was run: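 Cytotoxicity counter screen in PPARg-bla HEK293H cells, same wells as reporter assay. Compounds plus 50 nM rosiglitazone (final) for 17 h at 37 C, then viability read by CellTiter-Glo luminescence.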

[5] = target: Aryl hydrocarbon receptor (Homo sapiens) (UniProt P35869); test: qHTS assay to identify small molecule that activate the aryl hydrocarbon receptor (AhR) signaling pathway (AID 743085); note: potency is the fitted concentration of half-maximal effect; nearly all actives have a fitted effect of over 15% in size
Chain of UniProt P35869 (P35869 whole entry, looked up): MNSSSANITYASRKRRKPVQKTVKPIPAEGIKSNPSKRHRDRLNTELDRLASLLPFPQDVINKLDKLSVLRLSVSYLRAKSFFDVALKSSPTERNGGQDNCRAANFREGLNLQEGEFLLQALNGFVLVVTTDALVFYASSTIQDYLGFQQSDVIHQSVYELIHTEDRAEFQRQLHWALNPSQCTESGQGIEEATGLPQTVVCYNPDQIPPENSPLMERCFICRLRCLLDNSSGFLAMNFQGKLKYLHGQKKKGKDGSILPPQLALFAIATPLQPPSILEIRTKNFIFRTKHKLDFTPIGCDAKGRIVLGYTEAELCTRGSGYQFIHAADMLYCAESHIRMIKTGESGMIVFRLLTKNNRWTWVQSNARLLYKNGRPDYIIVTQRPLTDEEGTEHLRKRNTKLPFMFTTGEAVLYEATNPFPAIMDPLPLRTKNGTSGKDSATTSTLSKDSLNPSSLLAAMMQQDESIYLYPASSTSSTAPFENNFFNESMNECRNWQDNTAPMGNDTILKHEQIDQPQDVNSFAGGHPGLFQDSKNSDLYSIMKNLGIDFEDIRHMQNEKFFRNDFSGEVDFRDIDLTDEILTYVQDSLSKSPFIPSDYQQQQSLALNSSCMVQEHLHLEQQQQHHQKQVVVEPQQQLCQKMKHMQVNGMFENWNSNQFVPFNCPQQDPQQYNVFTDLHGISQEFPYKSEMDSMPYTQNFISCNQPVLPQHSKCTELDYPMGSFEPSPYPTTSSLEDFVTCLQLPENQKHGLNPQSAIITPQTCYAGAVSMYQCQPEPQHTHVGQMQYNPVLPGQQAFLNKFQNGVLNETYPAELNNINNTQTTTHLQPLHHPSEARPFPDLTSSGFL
How it was run: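 Luminescence (ONE-Glo) from a dioxin-responsive-element luciferase reporter in HG2L7.5c1 HepG2 cells after 24 hr compound exposure at 37C; viability measured by CellTiter-Fluor fluorescence beforehand.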
Tags give direction and shape of the fitted curve or compound fluorescence and quenching.

In the case of C1=C\CC/C=C\CC/1, the Potency [1] is reported as “inactive”.
In the case of C=CCOCC(O)CO (stereo not drawn), the Potency [1] is reported as “inactive”.
In the case of CC(C)=CCCC(C)CCOC=O (stereo not drawn), the Potency (Aromatase (Homo sapiens)) is reported as inconclusive: 54.5 µM [inhibitor, partial curve], the activation [2] is reported as inconclusive: 13.5% and the Potency [3] is reported as inconclusive: 61.6 µM [inhibitor, partial curve, poor fit]. The Potency [4] was active: 43.6 µM.
For O=C(c1ccc(Cl)cc1)c1ccc(Cl)cc1, the Potency [1] was “inactive”.
In the case of O=C(O)c1cc(=O)c2c(OCC(O)COc3cccc4oc(C(=O)O)cc(=O)c34)cccc2o1, the Potency (Aromatase (Homo sapiens)) is reported as “inactive” and the Potency [3] is reported as “inactive”.
For CC(C)(CO)[N+](=O)[O-], the Potency [1] was “inactive”.
In the case of CCCCCCCCS(=O)(=O)Cl, the Potency [1] is reported as inconclusive: 15.5 µM [rising, full curve].
For OCC(CBr)(CBr)CBr, the Potency [1] was “inactive”, the Potency [5] was inconclusive: 68.3 µM [activator, single point] and the Potency [4] was inconclusive: 0.138 µM [cytotoxic, full curve, poor fit].
With CC(C)OC(=O)CCCCC(=O)OC(C)C the Potency (Aromatase (Homo sapiens)) was inconclusive: 54.6 µM [inhibitor, partial curve, poor fit] and the ratio activity, negative = inhibition [3] was inconclusive: -39.5%.
For N=C(N)S(=O)O, the Potency (Aromatase (Homo sapiens)) was “inactive” and the Potency [3] was “inactive”.
For COC(=O)C1=C(C)NC(C)=C(C(=O)OC(C)C)C1c1cccc2nonc12 (stereo not drawn), the Potency (Aromatase (Homo sapiens)) was “inactive” and the Potency [4] was “inactive”.
In the case of CN1CCN(CC(=O)N2c3ccccc3C(=O)Nc3cccnc32)CC1, the Potency [1] is reported as inconclusive: 10.6 µM [rising, partial curve, poor fit].
For CCCCOC(=O)C(C)Oc1ccc(Oc2ccc(C(F)(F)F)cn2)cc1 (stereo not drawn), the Potency (Aromatase (Homo sapiens)) was inconclusive: 6.11 µM [inhibitor, full curve] and the ratio activity, negative = inhibition [3] was inconclusive: 12%.
